Data reported in PubChem BioAssay (NCATS).
Inconclusive results, whose numbers are uncertain, are shown with a selection of clear calls. For part of these data: A potency beside an inconclusive call is a rough fit, not a confirmed value. Calls of active or inactive are those of the source. Unless noted, calls come from the whole dose curve; as a rule, active = well fitted curve in the direction sought with a large enough effect; inconclusive = small, poorly fitted or top-dose-only effect, or another doubt; inactive = no such curve, though single readings can be large; an effect the other way counts as inactive or inconclusive.

Legend:
[1] = P-glycoprotein substrates identified in KB-8-5-11 adenocarcinoma cell line, qHTS therapeutic library screen (AID 1346987); conditions: activity change, negative = cytotoxicity: at 44.5 µM (top of the series); note: nearly all actives have a fitted effect of over 65% in size; note: potency is the fitted concentration of half-maximal effect
In short: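 Compounds are pinned in dose-response onto KB-8-5-11 cells (500 cells/well, colchicine-free medium) and left 72 h at 37 degree C. CellTiter-Glo luminescence then yields AC50 values.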

[2] = tested on: Zika virus NS2B-NS3 protease (linked construct); assay: Primary screen NINDS Rhodamine qHTS for Zika virus inhibitors (AID 1347160); note: nearly all actives have a fitted effect of over 55% in size
In short: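 Aprotinin served as in-plate control. Conditions: 25 nM linked NS2B-NS3, pH 8.0 Tris buffer, titrated compounds, 15 min preincubation and 15 min reaction with 1.5 microM Rhod110 substrate at room temperature.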

[3] = Primary qHTS for inhibitors of nuclear receptor binding SET domain protein 2 (NSD2) in an RCH-ACV wild type WT cells (2C) (AID 1645877); conditions: activity change, negative = cell killing: at 44.9 µM (top of the series) unless noted; note: nearly all actives have a fitted effect of over 70% in size
CAOV3 = assay: Primary qHTS to identify gynecologic anti-cancer compounds using libraries of approved drugs and bioactive compounds (AID 1345084); conditions: Gynecologic cancer cell panel viability, ATPlite luminescence, 48 h; series mostly up to 57.5 µM; note: nearly all actives have a fitted effect of over 55% in size; note: potency is the fitted concentration of half-maximal effect
In short: (§1)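 Five-point cytotoxicity, 48 h drug exposure at 37 C, 5% CO2, on cells seeded 16 h beforehand. ATP content read by ATPlite luminescence.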

Es-2 = assay: as above; conditions: Gynecologic cancer cell panel viability, ATPlite luminescence, 48 h; series mostly up to 57.5 µM
In short: as §1

HeLa = assay: as above; conditions: Gynecologic cancer cell panel viability, ATPlite luminescence, 48 h; series mostly up to 57.5 µM
In short: as §1

PA-1 = assay: as above; conditions: Gynecologic cancer cell panel viability, ATPlite luminescence, 48 h; series mostly up to 57.5 µM
In short: as §1

SKOV3 = assay: as above; conditions: Gynecologic cancer cell panel viability, ATPlite luminescence, 48 h; series mostly up to 57.5 µM
In short: as §1

Tov-21-G = assay: as above; conditions: Gynecologic cancer cell panel viability, ATPlite luminescence, 48 h; series mostly up to 57.5 µM
In short: as §1

Tov112D = assay: as above; conditions: Gynecologic cancer cell panel viability, ATPlite luminescence, 48 h; series mostly up to 57.5 µM
In short: as §1

[4] = Primary qHTS for inhibitors of nuclear receptor binding SET domain protein 2 (NSD2) in an isogenic RCH-ACV NSD2 p.E1099K mutant (9B) (AID 1645876); conditions: activity change, negative = viability loss: at 44.9 µM (top of the series) unless noted; note: nearly all actives have a fitted effect of over 70% in size
[5] = molecular target: Cytochrome P450 2D6 (Homo sapiens) (UniProt P10635); assay: Cytochrome P450 family 2 subfamily D member 6 (CYP2D6) small molecule antagonists: luciferase biochemical (cell-free) qHTS assay (AID 1645840; active = well fitted curve in the direction sought with a large enough effect in the repeat runs; inconclusive = weak or mixed curves; inactive = no such curve, though single readings can be large; an effect the other way counts as inactive or inconclusive; note: potency is the fitted concentration of half-maximal effect; nearly all actives have a fitted effect of over 55% in size)
In short: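 P450-Glo CYP2D6 system: proluciferin substrate converted by enzyme to luciferin, read by luminescence proportional to activity. Enzyme-substrate mix with compound 10 min at room temperature, then NADPH regeneration 1 h before detection reagent.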

[6] = molecular target: Cytochrome P450 2C9 (Homo sapiens) (UniProt P11712); assay: Cytochrome P450 family 2 subfamily C member 9 (CYP2C9) small molecule antagonists: luciferase biochemical (cell-free) qHTS assay (AID 1645842; active = well fitted curve in the direction sought with a large enough effect in the repeat runs; inconclusive = weak or mixed curves; inactive = no such curve, though single readings can be large; an effect the other way counts as inactive or inconclusive)
In short: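 P450-Glo CYP2C9 system: proluciferin substrate with enzyme in mix containing 0.4% BSA, 10 min at room temperature, then NADPH regeneration solution added and incubated 1 h at 37C. Detection reagent stopped reaction; luminescence read after 20 min as RLU.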

[7] = molecular target: Luciferin 4-monooxygenase (Photinus pyralis) (UniProt P08659); assay: Primary firefly luciferase (FLuc) qHTS assay for identification of artifact compounds. (AID 1845220); note: potency is the fitted concentration of half-maximal effect; nearly all actives have a fitted effect of over 60% in size
In short: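 Reaction readout was CCD-imaged luminescence, taken 5 min after adding 10 nM purified firefly enzyme to compound-treated wells holding 10 uM luciferin and ATP in pH 7.6 buffer.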

JEG-3 = assay: Primary qHTS to identify gynecologic anti-cancer compounds using libraries of approved drugs and bioactive compounds (AID 1345084); conditions: Gynecologic cancer cell panel viability, ATPlite luminescence, 48 h; series mostly up to 57.5 µM; note: nearly all actives have a fitted effect of over 55% in size; note: potency is the fitted concentration of half-maximal effect
In short: as §1

OV90 = assay: as above; conditions: Gynecologic cancer cell panel viability, ATPlite luminescence, 48 h; series mostly up to 57.5 µM
In short: as §1

Measured: Potency
Tags give direction and shape of the fitted curve.

Chain of UniProt P11712 (P11712 whole entry, looked up): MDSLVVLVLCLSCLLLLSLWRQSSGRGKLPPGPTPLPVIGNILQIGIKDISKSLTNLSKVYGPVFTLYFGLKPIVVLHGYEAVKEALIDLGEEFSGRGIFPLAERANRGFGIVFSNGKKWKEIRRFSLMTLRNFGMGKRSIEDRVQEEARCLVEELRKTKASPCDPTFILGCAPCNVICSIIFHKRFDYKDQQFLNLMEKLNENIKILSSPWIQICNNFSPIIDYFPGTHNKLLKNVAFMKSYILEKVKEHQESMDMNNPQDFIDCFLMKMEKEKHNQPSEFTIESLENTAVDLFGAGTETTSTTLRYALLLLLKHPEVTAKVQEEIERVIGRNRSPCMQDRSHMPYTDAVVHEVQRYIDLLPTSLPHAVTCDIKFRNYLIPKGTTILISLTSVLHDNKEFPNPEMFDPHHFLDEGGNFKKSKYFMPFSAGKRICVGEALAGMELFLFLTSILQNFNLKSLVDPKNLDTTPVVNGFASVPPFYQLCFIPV
Chain of UniProt P10635 (P10635 whole entry, looked up): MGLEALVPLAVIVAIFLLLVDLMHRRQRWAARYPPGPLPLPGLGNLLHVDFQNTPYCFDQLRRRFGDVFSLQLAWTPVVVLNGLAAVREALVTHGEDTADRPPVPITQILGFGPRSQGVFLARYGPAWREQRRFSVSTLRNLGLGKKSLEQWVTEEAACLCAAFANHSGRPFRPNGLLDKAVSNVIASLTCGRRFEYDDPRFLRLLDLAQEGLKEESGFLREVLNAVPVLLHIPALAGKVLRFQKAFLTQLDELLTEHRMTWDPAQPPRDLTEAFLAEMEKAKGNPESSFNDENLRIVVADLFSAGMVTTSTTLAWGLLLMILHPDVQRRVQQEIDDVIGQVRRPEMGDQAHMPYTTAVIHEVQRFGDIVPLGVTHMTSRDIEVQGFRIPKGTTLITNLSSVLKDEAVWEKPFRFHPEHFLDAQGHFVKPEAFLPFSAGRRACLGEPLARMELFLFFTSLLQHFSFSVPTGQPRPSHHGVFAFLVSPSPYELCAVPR

C=C(C(=O)OC)C1C(O)CC2(C)C(O)CCC(=O)C2C1O (configuration not stated)
inconclusive: Es-2 = 1 µM | HeLa 35.5 µM | PA-1 = 0.0355 µM | SKOV3 = 6.31 µM | Tov-21-G 0.1 µM | Tov112D 7.94 µM
inactive: [1] | [2] | [3] | CAOV3

O=C(OC[C@H]1O[C@H](O[C@]2(CO)O[C@H](CO)[C@@H](O)[C@@H]2O)[C@H](O)[C@@H](O)[C@@H]1O)c1ccc(O)cc1
inactive: [4] | CAOV3 | HeLa | PA-1

N#Cc1cc(F)cc(-c2nc(-c3ccccn3)no2)c1
active: [5] 10.7 µM | [7] 7.57 µM
inactive: [4]
inconclusive: [1] 23.1 µM [inhibitor, partial curve, poor fit] | [6] 10.7 µM [inhibitor, partial curve] | CAOV3 = 35.5 µM [cytotoxic, single point] | Es-2 = 25.1 µM [cytotoxic, single point] | HeLa 25.1 µM [cytotoxic, single point] | JEG-3 = 20 µM [cytotoxic, partial curve] | OV90 = 25.1 µM [cytotoxic, single point] | PA-1 = 11.2 µM [cytotoxic, partial curve] | SKOV3 = 39.8 µM [cytotoxic, single point] | Tov-21-G 35.5 µM [cytotoxic, partial curve]
